Variants at the background level are over-represented here.
B1: TPR 5TU (parent)
chain: GGAUCUUCUCGAUCUAACAAAAAAGACAAAUCUGCCACAAAGCUUGAGAGCAUCUUCGGAUGCAGAGGCGGCAGCCUUCGGUGGCGCGAUAGCGCCAACGUUCUCAACUAUGACACGCAAAACGCGUGCUCCGUUGAAUGGAGUUUAUCAUG

Variants of: B1
Experiment: polymerase ribozyme fitness, log enrichment relative to wild type (log ratio); higher = more active; in vitro selection for triplet polymerase activity
How it was run: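 After PCR construction and transcription, each subunit's mutant library from a heterodimeric triplet polymerase ribozyme was annealed with a biotinylated primer, the partner subunit and triplets. Incubation was frozen, at −7 °C, and extended constructs were gel-excised, bound to streptavidin beads and amplified by RT-PCR, in one selection round done in triplicate. Fitness is the logarithm of a genotype's enrichment divided by that of the wild type, from inverse-variance-weighted replicate averages of Illumina-sequenced inputs and outputs. The base of the logarithm is 2, and genotypes needed ≥10 input reads and ≥1 read per output.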

Point of comparison: A26U C85U A115G, “polymerase ribozyme fitness (log ratio)” value -3.36. Against it:
- A26U A64U G74A C85G C118G U146G A150U — lower, ≤ -4.2
- A26U A89G — within 0.2 log units, -3.26
- A26U A91C A97G A107U — lower, ≤ -4.2
- A26U A91G A115G A150C — lower, ≤ -4.2
- A26U A107G — lower, ≤ -4.2
- A26U C27U A39G G80A A91G G92C — lower, ≤ -4.2
- A26U C27U A49G G50C G83A A91C G152C — lower, ≤ -4.2
- A26U C27U G83A G117C C123G G126A C149A — lower, ≤ -4.2
- A26U C27U U33A G34A U56A C57U C76A C85G G88A U127C — lower, ≤ -4.2
- A26U C35U G42C C108A A115C G133U U135A A142G U146C A147G — lower, ≤ -4.2
- A26U C35U U55A C96G G124A — lower, ≤ -4.2
- A26U C36G U55A G58C C105U — lower, ≤ -4.2
- A26U C36U G46C A49C C69U A91C G94U G136C — lower, ≤ -4.2
- A26U C38U C51G A73G G83C — lower, ≤ -4.2
- A26U C51A C54A C57U U90C C93G — lower, ≤ -4.2
- A26U C51U A64C G81C A106U — lower, ≤ -4.2
- A26U C51U C72U A73U C85A C99G G100C U111G — lower, ≤ -4.2
- A26U C51U G58C — higher, -2.08
- A26U C51U G83U A150G — lower, ≤ -4.2
- A26U C54A U56G C75A C93A U134A — lower, ≤ -4.2
- A26U C57A G59A U77A G92A — lower, ≤ -4.2
- A26U C69G A142U — higher, -2.62
- A26U C75A U82G G92U G100A A107U U144A — lower, ≤ -4.2
- A26U C75U G83C C103U A106G A120G U127A — lower, ≤ -4.2
- A26U C93U A122U — higher, -2.76
- A26U C96U C108G U127A — lower, ≤ -4.2
- A26U C96U G140C — lower, ≤ -4.2
- A26U C118U — higher, -0.616
- A26U G34A A47C C96A C116G G136A — lower, ≤ -4.2
- A26U G34U C75G G94A — lower, ≤ -4.2
- A26U G42U — lower, ≤ -4.2
- A26U G46U A47U G74C C79G G92U G140A — lower, ≤ -4.2
- A26U G46U A73G U139A G141A — lower, ≤ -4.2
- A26U G48A — within 0.2 log units, -3.27
- A26U G48U G81C A106U U134C U135G — lower, ≤ -4.2
- A26U G50A A60G G68U U134C — lower, ≤ -4.2
- A26U G50A A64G U101G G141A — lower, ≤ -4.2
- A26U G50C C85G C95A C96U — lower, ≤ -4.2
- A26U G50C G84A C118U — lower, ≤ -4.2
- A26U G50U C54U C79G C87G C149A — lower, ≤ -4.2
- A26U G58U C93U A97G G124A U139C G143C — lower, ≤ -4.2
- A26U G59C G88U A97C C108U C116G — lower, ≤ -4.2
- A26U G65A A66U U77C C96U A106U A107U C132U U139A G143C U148A — lower, ≤ -4.2
- A26U G70A G92U C103U — lower, ≤ -4.2
- A26U G81A C87U G140U A142G — lower, ≤ -4.2
- A26U G84U C87A C116U — lower, ≤ -4.2
- A26U G92C — within 0.2 log units, -3.52
- A26U G94A U102A G117U — lower, ≤ -4.2
- A26U U31A U44G C75G U102G A120C — lower, ≤ -4.2
- A26U U31C A73G G83A C125A A137C G143A — lower, ≤ -4.2
- A26U U31G C85A A89G — lower, ≤ -4.2
- A26U U33C U55C A60C G84U C123G — lower, ≤ -4.2
- A26U U33G C51G G68A C69A A115G — lower, ≤ -4.2
- A26U U53G G83A C118G U135C — lower, ≤ -4.2
- A26U U61A C79U C96G U101G — lower, ≤ -4.2
- A26U U61A C85A — lower, ≤ -4.2
- A26U U77G — lower, ≤ -4.2
- A26U U90C A97G A107U A138C — lower, ≤ -4.2
- A26U U101G G112C — lower, ≤ -4.2
- A26U U104C G126C U146A — higher, -2.67
- C27A A28C C57G C76A A91C — lower, ≤ -4.2
- C27A A37U C85G C87G C96G — lower, ≤ -4.2
- C27A A40C C54G U61A U144C U146C U148G — lower, ≤ -4.2
- C27A A41C C96U — lower, ≤ -4.2
- C27A A47G C51U U53A C75G C96A C108U C123A G143C — lower, ≤ -4.2
- C27A A49C U55G C75U G84A — lower, ≤ -4.2
- C27A A49G A60G C85U — lower, ≤ -4.2
- C27A C36U A47C G59U C79A G94U — lower, ≤ -4.2
- C27A C38G C43U C85U G133A U144C — lower, ≤ -4.2
- C27A C79A G84A G86U — lower, ≤ -4.2
- C27A C85A A120U G141C — lower, ≤ -4.2
- C27A C87U G136C — lower, ≤ -4.2
- C27A G42U C93U A110G U111G U145C — lower, ≤ -4.2
- C27A G42U G88A U130C — lower, ≤ -4.2
- C27A G42U U102G G133C — lower, ≤ -4.2
- C27A G50A C57A C72U G84U — lower, ≤ -4.2
- C27A G50A C57G G59U G65C — lower, ≤ -4.2
- C27A G50A G68A A142C — lower, ≤ -4.2
- C27A G50C U104A A138G G140A — lower, ≤ -4.2
- C27A G58U C95U C96A G124U — lower, -4.08
- C27A G71U — lower, ≤ -4.2
- C27A G86A G94A U102G C132U G133U U134A — lower, ≤ -4.2
- C27A G92A A120G A121C A137G A142U — lower, ≤ -4.2
